# The supplement of paper PMC9446081
# The campaign covered roughly 39,000 compounds. About 220 (0.56%) showed activity. The list shows a part of the results.
# Test system: Escherichia coli K-12 BW25113
# Experiment: relative growth (OD600 normalised to plate interquartile mean) (fraction); higher = less growth inhibition, active = 0.2 or less
# Conditions: 50 µM; LB; incubation time: overnight (16-24 h)
# 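Note: static incubation at 37 °C against the wild-type strain, values averaged over two biological replicates.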
row,Compound,relative growth
1,CC(=O)NCCCC[C@@H]1NC(=O)[C@H]2C[C@@H](C(=O)NCCCCCNC(=O)CS)[C@@H](c3ccc(O)cc3)N2C1=O,inactive: 0.984
2,Cc1noc(C)c1NC(=O)Nc1cccc2c1O[C@@H](CN(C)C(=O)Nc1cccc3ccccc13)[C@H](C)CN([C@H](C)CO)C2=O,inactive: 0.982
3,Cc1ccc2cccc(OCCOc3ccccc3C(C)C)c2n1,inactive: 1.05
4,Cc1ccc(O)cc1,inactive: 1.05
5,COc1ccc(CN(C)C[C@H]2OCCCC[C@@H](C)Oc3ccc(NC(=O)Nc4cccc5ccccc45)cc3C(=O)N([C@H](C)CO)C[C@@H]2C)cc1,inactive: 0.984
6,C[C@H]1CN([C@@H](C)CO)C(=O)CCCn2cc(nn2)CO[C@H]1CN(C)C(=O)Nc1ccc2c(c1)OCCO2,inactive: 1.01
7,CN(C)c1nc(N(C)C)nc(N(C)C)n1,inactive: 1.15
8,CC(C)NC(=O)Nc1cccc2c1O[C@H](CN(C)Cc1ccc3c(c1)OCO3)[C@H](C)CN([C@@H](C)CO)C2=O,inactive: 1.01
9,C[C@@H]1CN([C@@H](C)CO)C(=O)c2cccc(NC(=O)Nc3cccc4ccccc34)c2O[C@H]1CN(C)C(=O)Nc1ccc(C(F)(F)F)cc1,inactive: 1.01
10,C[C@H](CO)N1C[C@H](C)[C@@H](CN(C)C(=O)NC2CCCCC2)Oc2c(NC(=O)c3ccc(-c4nccs4)cc3)cccc2C1=O,inactive: 1
11,O=C(CN1CCOCC1)N[C@@H]1CC[C@H](CCNS(=O)(=O)c2ccccc2F)O[C@@H]1CO,inactive: 1.01
12,C[C@H]1CN([C@@H](C)CO)C(=O)c2cc(NC(=O)Nc3ccccc3)ccc2O[C@H]1CN(C)Cc1ccc(Oc2ccccc2)cc1,inactive: 1.03
13,COc1ccc(S(=O)(=O)N(C)C[C@H]2Oc3ccc(NC(=O)Nc4c(C)noc4C)cc3C(=O)N([C@@H](C)CO)C[C@@H]2C)cc1,inactive: 1.02
14,Clc1ccc2nc(Cl)cc(-c3ccccc3)c2c1,inactive: 1
15,C[C@@H]1CN([C@@H](C)CO)C(=O)Cc2cc(NS(=O)(=O)c3ccccc3)ccc2O[C@@H]1CN(C)Cc1ccc(C(=O)O)cc1,inactive: 1.01
16,CC(=O)N[C@H]1[C@H](O/N=[N+](\[O-])N2CCCC2)O[C@H](CO)[C@@H](O)[C@@H]1O,inactive: 0.993
17,C[C@H](CO)N1C[C@H](C)[C@H](CN(C)S(=O)(=O)c2ccc(F)cc2)Oc2ncc(C#Cc3ccc(F)cc3)cc2C1=O,inactive: 1.02
18,Cc1noc(C)c1S(=O)(=O)Nc1ccc2c(c1)C(=O)N([C@@H](C)CO)C[C@@H](C)[C@H](CN(C)S(=O)(=O)c1ccccc1)O2,inactive: 1
19,O=C(CSc1nnc[nH]1)C1CC1,inactive: 0.94
20,COCC(=O)N(C)C[C@H]1Oc2cc(C#CCN(C)C)ccc2S(=O)(=O)N([C@H](C)CO)C[C@H]1C,inactive: 1.01
21,COc1ccc(CN(C)C[C@H]2OCCCC[C@H](C)Oc3ccc(NS(=O)(=O)c4cccs4)cc3C(=O)N([C@H](C)CO)C[C@@H]2C)cc1,inactive: 0.994

row,Compound,relative growth
1,Cc1cc(C(=O)Nc2cccc3c2O[C@H](CN(C)Cc2ccc(C(=O)O)cc2)[C@@H](C)CN([C@H](C)CO)C3=O)n(C)n1,inactive: 0.984
2,Cc1ccc(S(=O)(=O)N(C)C[C@H]2Oc3ccc(NC(=O)C4CC4)cc3C(=O)N([C@H](C)CO)C[C@H]2C)cc1,inactive: 1.03
3,COc1ccc(S(=O)(=O)Nc2ccc3c(c2)CC(=O)N([C@H](C)CO)C[C@@H](C)[C@@H](CN(C)Cc2ccc(Cl)c(Cl)c2)O3)cc1,inactive: 0.966
4,O=C(C[C@H]1CC[C@@H]2[C@H](COC[C@H](O)CN2S(=O)(=O)c2ccccc2)O1)NCCN1CCCCC1,inactive: 0.989
5,Cc1ccc(S(=O)(=O)N(C)C[C@H]2Oc3ccc(NS(=O)(=O)c4cccs4)cc3CC(=O)N([C@H](C)CO)C[C@H]2C)cc1,inactive: 0.951
6,C[C@@H]1CCCCO[C@@H](CN(C)C(=O)NC2CCCCC2)[C@H](C)CN([C@@H](C)CO)C(=O)c2cc(NC(=O)Cc3ccccc3)ccc2O1,inactive: 1.03
7,C[C@H](CO)N1C[C@H](C)[C@H](CN(C)C(=O)CN2CCOCC2)Oc2ncc(C3=CCCCC3)cc2C1=O,inactive: 1.01
8,CS(=O)(=O)Nc1ccccc1O,inactive: 1.01
9,COc1ccc(S(=O)(=O)Nc2ccc3c(c2)C(=O)N([C@@H](C)CO)C[C@@H](C)[C@H](CN(C)Cc2ccc(C(=O)Nc4ccccc4N)cc2)OCCCC[C@@H](C)O3)cc1,inactive: 0.973
10,C[C@@H]1CN([C@H](C)CO)C(=O)c2cc(NC(=O)Cn3cnnn3)ccc2O[C@H]1CN(C)C(=O)Nc1ccc(C(F)(F)F)cc1,inactive: 1
11,COc1cccc(S(=O)(=O)N(C)C[C@H]2Oc3ncc(C#CC(C)C)cc3C(=O)N([C@H](C)CO)C[C@@H]2C)c1,inactive: 1.02
12,O=C(CN1CCOCC1)N[C@H]1CC[C@H](CCNC(=O)Nc2cc(F)ccc2F)O[C@H]1CO,inactive: 1.02
13,CC(C)NC(=O)Nc1cccc2c1O[C@@H](CN(C)S(=O)(=O)c1cccs1)[C@@H](C)CN([C@H](C)CO)C2=O,inactive: 0.996
14,CC(=O)Nc1cc(C(C)C)c(C(C)C)cc1C(C)C,inactive: 0.959
15,O=C(C[C@H]1CC[C@@H]2[C@H](COC[C@H](O)CN2S(=O)(=O)c2cccc(F)c2)O1)NCc1ccncn1,inactive: 0.994
16,O=C(CN1CCOCC1)NCC[C@@H]1CC[C@@H](NS(=O)(=O)c2ccc(F)cc2)[C@@H](CO)O1,inactive: 1.01
17,C[C@@H]1CN([C@H](C)CO)C(=O)c2c(c3ccccc3n2C)-c2ccccc2CO[C@H]1CN(C)Cc1ccc(-c2ccccc2)cc1,inactive: 0.987
18,Cc1cc(C)c(C#N)c(=O)[nH]1,inactive: 0.983
19,Cc1noc(C)c1S(=O)(=O)Nc1ccc2c(c1)C(=O)N([C@H](C)CO)C[C@H](C)[C@H](CN(C)S(C)(=O)=O)OCCCC[C@H](C)O2,inactive: 0.98
20,C[C@@H]1CCCCO[C@H](CN(C)CC2CCCCC2)[C@H](C)CN([C@@H](C)CO)C(=O)c2cc(NC(=O)CCCCCC(=O)Nc3ccccc3N)ccc2O1,inactive: 1.02
21,CO[C@@H]1CN(C)C(=O)c2cc(NS(=O)(=O)CC(F)(F)F)ccc2OC[C@H](C)N(Cc2ccccn2)C[C@@H]1C,inactive: 1.02

row,Compound,relative growth
1,C[C@@H]1NC(=O)[C@@H](N)CNC(=O)[C@H]([C@H]2CCN=C(N)N2)NC(=O)/C(=C\NC(N)=O)NC(=O)[C@H](CNC(=O)C[C@@H](N)CCCN)NC1=O,inactive: 0.743
2,CCCC#Cc1ccc2c(c1)O[C@H](CN(C)S(=O)(=O)c1cccc(OC)c1)[C@@H](C)CN([C@H](C)CO)S2(=O)=O,inactive: 1.05
3,C[C@@H]1CN([C@@H](C)CO)C(=O)c2cccc(NC(=O)Nc3ccc(F)cc3)c2O[C@H]1CN(C)C(=O)Nc1ccc(C(F)(F)F)cc1,inactive: 0.975
4,CCS(=O)(=O)N[C@@H]1CC[C@@H](CC(=O)NCC2CC2)O[C@H]1CO,inactive: 1.01
5,C[C@@H]1CCCCO[C@H](CN(C)C(=O)Nc2ccc(F)cc2)[C@@H](C)CN([C@H](C)CO)C(=O)c2cc(NC(=O)Nc3ccccc3)ccc2O1,inactive: 0.956
6,C=CC(C)(O)CCC=C(C)CCC=C(C)C (stereo unspecified),inactive: 0.898
7,C[C@@H]1CCCCO[C@H](CN(C)Cc2ccc(C(=O)O)cc2)[C@@H](C)CN([C@H](C)CO)C(=O)c2cc(NC(=O)Nc3cccc4ccccc34)ccc2O1,inactive: 1.02
8,O=C(C[C@H]1C[C@@H]2c3cc(NC(=O)NC4CCCC4)ccc3O[C@@H]2[C@@H](CO)O1)NCc1ccc(Oc2ccccc2)cc1,inactive: 1.03
9,CC(C)CC#Cc1ccc2c(c1)O[C@H](CN(C)C(=O)c1cnccn1)[C@H](C)CN([C@H](C)CO)S2(=O)=O,inactive: 0.983
10,C[C@@H]1CCCCO[C@@H](CN(C)C(=O)Nc2ccc3c(c2)OCO3)[C@H](C)CN([C@H](C)CO)C(=O)c2cc(NS(=O)(=O)c3cccs3)ccc2O1,inactive: 1
11,COc1cccc(S(=O)(=O)N2C[C@@H](O)COC[C@@H]3O[C@@H](CC(=O)NCCCN4CCOCC4)CC[C@H]32)c1,inactive: 1.01
12,C[C@@H]1CCCCO[C@H](CN(C)C(=O)Cc2ccccc2)[C@H](C)CN([C@@H](C)CO)C(=O)c2cc(NC(=O)Nc3cccc4ccccc34)ccc2O1,inactive: 1.01
13,C[C@@H]1CCCCO[C@@H](CN(C)CC2CCCCC2)[C@@H](C)CN([C@@H](C)CO)C(=O)c2cc(NC(=O)c3ccccc3)ccc2O1,inactive: 0.985
14,CN1C(=O)c2cc(NC(=O)C3CCOCC3)ccc2OC[C@@H]2O[C@@H](CC(=O)NCc3ccccc3F)CC[C@@H]21,inactive: 0.992
15,O=C(C[C@@H]1C=C[C@@H](NS(=O)(=O)c2ccccc2)[C@H](CO)O1)NCc1ccncn1,inactive: 0.99
16,C[C@@H]1CN([C@@H](C)CO)C(=O)Cc2cc(NS(=O)(=O)c3ccc(Cl)cc3)ccc2O[C@@H]1CN(C)C(=O)Nc1cccc2ccccc12,inactive: 1
17,C[C@H]1CN([C@@H](C)CO)C(=O)c2cccc(NC(=O)Nc3ccc(C(F)(F)F)cc3)c2O[C@@H]1CN(C)C(=O)Nc1cccc2ccccc12,inactive: 0.782
18,Cc1noc(C)c1S(=O)(=O)N(C)C[C@H]1Oc2ccc(NS(=O)(=O)c3cccs3)cc2CC(=O)N([C@@H](C)CO)C[C@H]1C,inactive: 0.997
19,C[C@H]1CN([C@@H](C)CO)C(=O)c2cccc(NC(=O)NC3CCCCC3)c2O[C@H]1CN(C)S(C)(=O)=O,inactive: 1.01
